According to US20250043022A1 (JIANGSU HENGRUI PHARMACEUTICALS, published 2025):
One block for each binder: values may come before it.

Assays:
[1] = molecular target: T1, human PSMA on cells (Cho-hPSMA, CHO-K1 cells overexpressing full-length human PSMA) (human, UniProt Q04609); assay: flow cytometry, Cho-hPSMA; antibody at 100 nM
T1 construct: whole, on cells; also called cell surface PSMA; PSMA-expressing Lncap cells
Protocol: (§1) Experiment 1: Cho-hPSMA was cultured in F12 medium with 10% FBS. The medium to which cells were inoculated was incubated in a 37° C., 5% CO₂ incubator for 2 days, and cells were added to a cell plate at 1×10⁵ cells/well and washed by centrifugation. Antibodies were serially diluted, and the antibody solutions were added to the cell plate at 100 μL/well. The plate was incubated at 4° C. for 1 h and then washed. An AF488-Goat Anti-human IgG Fc fluorescent secondary antibody dilution (1:400) was added to the cell plate at 100 μL/well, and the plate was incubated at 4° C. for 1 h and then washed. PBS was added to the cell plate at 100 μL/well before plate reading.
(§2) Experiment 3: The binding activity of bispecific antibodies was measured using the method of experiment 1.

[2] = molecular target: T1, human PSMA on cells (Cho-hPSMA, CHO-K1 …); assay: cell-based or functional assay
[3] = molecular target: T1, human PSMA on cells (Cho-hPSMA, CHO-K1 …); assay: flow cytometry, Cho-hPSMA; antibody at 20 nM
Protocol: as §1, §2

[4] = molecular target: T1, human PSMA on cells (Cho-hPSMA, CHO-K1 …); assay: flow cytometry, Cho-hPSMA; antibody at 0.8 nM
Protocol: as §1, §2

[5] = molecular target: T1, human PSMA on cells (Cho-hPSMA, CHO-K1 …); assay: flow cytometry, Cho-hPSMA; antibody at 4 nM
Protocol: as §1, §2

[6] = molecular target: T1, human PSMA on cells (Cho-hPSMA, CHO-K1 …); assay: cell ELISA (OD450), Cho-hPSMA cells
Protocol: Experiment 2: Cells were cultured and inoculated onto a cell plate using the same method as in Experiment 1. The antibodies were serially diluted, and the antibody solutions were added to the cell plate at 100 μL/well. The plate was incubated at 4° C. for 1 h and then washed. An HRP-Goat Anti-human IgG (H+L) secondary antibody dilution (1:8000) was added to the cell plate at 100 μL/well, and the plate was incubated at 4° C. for 1 h and then washed by centrifugation. After color development with TMB, the reaction was stopped with 0.1 M sulfuric acid, and OD450 values were measured.

[7] = molecular target: T2, human PSMA antigen (R&D SYSTEM, 4234-ZN-010) (human, UniProt Q04609); assay: ELISA, plate-bound PSMA antigen
T2 construct: bought antigen
Protocol: To test the ability of the PSMA-targeting humanized antibodies of the present disclosure to bind to PSMA antigen, the ELISA method was used in this test example to measure the binding of the PSMA-targeting humanized antibodies to human PSMA antigen (purchased from R&D SYSTEM, 4234-ZN-010). The specific steps are as follows: A 96-well plate was coated with PSMA antigen at 1 μg/well and placed at 4° C. overnight. After the supernatant was discarded, the plate was blocked with 5% skim milk for 2 h. Different concentrations of humanized antibodies were prepared using 1% BSA. The initial concentration was 10 μg/mL and was serially diluted 4-fold to obtain 12 concentrations. After the blocked 96-well plate was washed twice, the […] was added, and the plate was incubated at 4° C. for 1 h. After four washes, the plate was incubated with Strepidation-HRP secondary antibody (1:10,000) at 4° C. for 1 h. After color development with TMB, the reaction was stopped with 0.1 M sulfuric acid.

B1: 19-F4 (bispecific antibody)
heavy: not shown
light: DIQMTQSPSSLSASVGDRVTITCRASQDISKYLNWYQQKPGKAPKLLIYYTSSLHSGVPSRFSGSGSGTDYTLTISSLQPEDFATYYCQQGNRLPRTFGGGTKVEIKRTVAAPSVFIFPPSDEQLKSGTASVVCLLNNFYPREAKVQWKVDNALQSGNSQESVTEQDSKDSTYSLSSTLTLSKADYEKHKVYACEVTHQGLSSPVTKSFNRGEC
notes: PSMA x CD3, Format 4
fluorescence intensity [1]: 30800
cytotoxic activity against Lncap, EC50 [2]: 0.0109 nM
cytotoxic activity against Lncap, Maximum lysis rate % [2]: 64.9%
fluorescence intensity [3]: 29300
fluorescence intensity [4]: 6910
fluorescence intensity [5]: 20400

B2: hu19H1L1 (antibody, human IgG1, kappa)
heavy: EVQLVESGGGLVQPGGSLRLSCAASGFTFSDYYMAWVRQAPGKGLEWVANINYDGSSTYYLDSLKSRFTISRDNAKNSLYLQMNSLRAEDTAVYYCARGGDYWDAMDYWGQGTTVTVSS[no letters for human IgG1 constant region]
light: DIQMTQSPSSLSASVGDRVTITCRASQDISKYLNWYQQKPGKAPKLLIYYTSSLHSGVPSRFSGSGSGTDFTLTISSLQPEDFATYYCQQGNRLPRTFGGGTKVEIKRTVAAPSVFIFPPSDEQLKSGTASVVCLLNNFYPREAKVQWKVDNALQSGNSQESVTEQDSKDSTYSLSSTLTLSKADYEKHKVYACEVTHQGLSSPVTKSFNRGEC
EC50 [6]: 0.0945 µg/mL

B3: hu19H1L2 (antibody, human IgG1, kappa)
heavy: EVQLVESGGGLVQPGGSLRLSCAASGFTFSDYYMAWVRQAPGKGLEWVANINYDGSSTYYLDSLKSRFTISRDNAKNSLYLQMNSLRAEDTAVYYCARGGDYWDAMDYWGQGTTVTVSS[no letters for human IgG1 constant region]
light: DIQMTQSPSSLSASVGDRVTITCRASQDISKYLNWYQQKPGKAPKLLIYYTSSLHSGVPSRFSGSGSGTDYTLTISSLQPEDFATYYCQQGNRLPRTFGGGTKVEIKRTVAAPSVFIFPPSDEQLKSGTASVVCLLNNFYPREAKVQWKVDNALQSGNSQESVTEQDSKDSTYSLSSTLTLSKADYEKHKVYACEVTHQGLSSPVTKSFNRGEC
EC50 [6]: 0.112 µg/mL

Continued, values first:

EC50 [6]: 0.0919 µg/mL
B4: hu19H2L1 (antibody, human IgG1, kappa)
heavy: EVKLVESGGGLVQPGGSLRLSCAASGFTFSDYYMAWVRQAPGKGLEWVANINYDGSSTYYLDSLKSRFTISRDNAKNSLYLQMNSLRAEDTAVYYCARGGDYWDAMDYWGQGTTVTVSS[no letters for human IgG1 constant region]
light: DIQMTQSPSSLSASVGDRVTITCRASQDISKYLNWYQQKPGKAPKLLIYYTSSLHSGVPSRFSGSGSGTDFTLTISSLQPEDFATYYCQQGNRLPRTFGGGTKVEIKRTVAAPSVFIFPPSDEQLKSGTASVVCLLNNFYPREAKVQWKVDNALQSGNSQESVTEQDSKDSTYSLSSTLTLSKADYEKHKVYACEVTHQGLSSPVTKSFNRGEC

EC50 [6]: 0.0889 µg/mL
EC50 [7]: 0.0837 µg/mL
Top (maximum absorbance) [7]: 1.58 absorbance
B5: hu19H2L2 (antibody, human IgG1, kappa)
heavy: EVKLVESGGGLVQPGGSLRLSCAASGFTFSDYYMAWVRQAPGKGLEWVANINYDGSSTYYLDSLKSRFTISRDNAKNSLYLQMNSLRAEDTAVYYCARGGDYWDAMDYWGQGTTVTVSS[no letters for human IgG1 constant region]
light: DIQMTQSPSSLSASVGDRVTITCRASQDISKYLNWYQQKPGKAPKLLIYYTSSLHSGVPSRFSGSGSGTDYTLTISSLQPEDFATYYCQQGNRLPRTFGGGTKVEIKRTVAAPSVFIFPPSDEQLKSGTASVVCLLNNFYPREAKVQWKVDNALQSGNSQESVTEQDSKDSTYSLSSTLTLSKADYEKHKVYACEVTHQGLSSPVTKSFNRGEC
